# Experimental data reported in the supplement of paper PMC8728848.
# Some of the results follow.
# How the values were obtained:
# Assay in all cases: glycan array binding signal (z-score within array); higher = stronger binding
# Settings in all cases: glycan notation: IUPAC condensed, linker removed
# [1] = biological target: Neu5Ac(a2-3)Gal(b1-4)GlcNAc(b1-2)[Neu5Ac(a2-3)Gal(b1-4)GlcNAc(b1-4)]Man(a1-3)[GlcNAc(b1-4)][Neu5Ac(a2-3)Gal(b1-4)GlcNAc(b1-4)Man(a1-6)]Man(b1-4)GlcNAc(b1-4)GlcNAc
# Outline: (§1)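 Negative Z-scores can be read as non-binding. The Z-score is calculated within each array and then averaged across arrays of one protein sequence at different concentrations or buffers and across linkers. Arrays, 3228 in all, were curated from the Consortium for Functional Glycomics database and kept only where the protein sequence was available.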
# [2] = biological target: Neu5Ac(a2-3)Gal(b1-4)GlcNAc(b1-2)[Neu5Ac(a2-3)Gal(b1-4)GlcNAc(b1-6)]Man(a1-6)[Neu5Ac(a2-3)Gal(b1-4)GlcNAc(b1-2)Man(a1-3)]Man(b1-4)GlcNAc(b1-4)GlcNAc
# Outline: as §1
# [3] = biological target: Neu5Ac(a2-3)Gal(b1-4)GlcNAc(b1-2)[Neu5Ac(a2-3)Gal(b1-4)GlcNAc(b1-6)]Man(a1-6)[Neu5Ac(a2-3)Gal(b1-4)GlcNAc(b1-2)Man(a1-3)][GlcNAc(b1-4)]Man(b1-4)GlcNAc(b1-4)GlcNAc
# Outline: as §1
# [4] = biological target: Neu5Ac(a2-3)Gal(b1-4)GlcNAc(b1-3)Gal
# Outline: as §1
# [5] = biological target: Neu5Ac(a2-3)Gal(b1-4)GlcNAc(b1-3)Gal(b1-3)GlcNAc
# Outline: as §1
# [6] = biological target: Neu5Ac(a2-3)Gal(b1-4)GlcNAc(b1-3)Gal(b1-4)GlcNAc
# Outline: as §1
# [7] = biological target: Neu5Ac(a2-3)Gal(b1-4)GlcNAc(b1-3)Gal(b1-4)GlcNAc(b1-2)Man(a1-3)[Neu5Ac(a2-3)Gal(b1-4)GlcNAc(b1-3)Gal(b1-4)GlcNAc(b1-2)Man(a1-6)]Man(b1-4)GlcNAc(b1-4)GlcNAc
# Outline: as §1
# [8] = biological target: Neu5Ac(a2-3)Gal(b1-4)GlcNAc(b1-3)Gal(b1-4)GlcNAc(b1-3)Gal(b1-4)GlcNAc
# Outline: as §1
# [9] = biological target: Neu5Ac(a2-3)Gal(b1-4)GlcNAc(b1-3)Gal(b1-4)GlcNAc(b1-3)Gal(b1-4)GlcNAc(b1-2)Man(a1-3)[Neu5Ac(a2-3)Gal(b1-4)GlcNAc(b1-3)Gal(b1-4)GlcNAc(b1-3)Gal(b1-4)GlcNAc(b1-2)Man(a1-6)]GalNAc
# Outline: as §1
# [10] = biological target: Neu5Ac(a2-3)Gal(b1-4)GlcNAc(b1-3)Gal(b1-4)GlcNAc(b1-3)GalNAc
# Outline: as §1
# [11] = biological target: Neu5Ac(a2-3)Gal(b1-4)GlcNAc(b1-3)Gal(b1-4)GlcNAc(b1-3)[Neu5Ac(a2-3)Gal(b1-4)GlcNAc(b1-3)Gal(b1-4)GlcNAc(b1-6)]GalNAc
# Outline: as §1
# [12] = biological target: Neu5Ac(a2-3)Gal(b1-4)GlcNAc(b1-3)Gal(b1-4)GlcNAc(b1-6)[Gal(b1-3)]GalNAc
# Outline: as §1
# [13] = biological target: Neu5Ac(a2-3)Gal(b1-4)GlcNAc(b1-3)Gal(b1-4)[Fuc(a1-3)]GlcNAc
# Outline: as §1
# [14] = biological target: Neu5Ac(a2-3)Gal(b1-4)GlcNAc(b1-3)GalNAc
# Outline: as §1
# [15] = biological target: Neu5Ac(a2-3)Gal(b1-4)GlcNAc(b1-3)[Neu5Ac(a2-3)Gal(b1-4)GlcNAc(b1-6)]GalNAc
# Outline: as §1
# [16] = biological target: Neu5Ac(a2-3)Gal(b1-4)GlcNAc(b1-6)GalNAc
# Outline: as §1
# [17] = biological target: Neu5Ac(a2-3)Gal(b1-4)GlcNAc(b1-6)[Gal(b1-3)]GalNAc
# Outline: as §1
# [18] = biological target: Neu5Ac(a2-3)Gal(b1-4)GlcNAc(b1-6)[Neu5Ac(a2-3)Gal(b1-3)]GalNAc
# Outline: as §1
# [19] = biological target: Neu5Ac(a2-3)Gal(b1-4)GlcNAc6S
# Outline: as §1
# [20] = biological target: Neu5Ac(a2-3)Gal(b1-4)[Fuc(a1-3)]GlcNAc
# Outline: as §1
# [21] = biological target: Neu5Ac(a2-3)Gal(b1-4)[Fuc(a1-3)]GlcNAc(b1-2)Man
# Outline: as §1
# [22] = biological target: Neu5Ac(a2-3)Gal(b1-4)[Fuc(a1-3)]GlcNAc(b1-3)Gal
# Outline: as §1
# [23] = biological target: Neu5Ac(a2-3)Gal(b1-4)[Fuc(a1-3)]GlcNAc(b1-3)Gal(b1-4)GlcNAc
# Outline: as §1
# [24] = biological target: Neu5Ac(a2-3)Gal(b1-4)[Fuc(a1-3)]GlcNAc(b1-3)Gal(b1-4)[Fuc(a1-3)]GlcNAc(b1-3)Gal(b1-4)[Fuc(a1-3)]GlcNAc
# Outline: as §1
# [25] = biological target: Neu5Ac(a2-3)Gal(b1-4)[Fuc(a1-3)]GlcNAc(b1-3)GalNAc
# Outline: as §1
# [26] = biological target: Neu5Ac(a2-3)Gal(b1-4)[Fuc(a1-3)]GlcNAc(b1-6)[Gal(b1-3)]GalNAc
# Outline: as §1
# [27] = biological target: Neu5Ac(a2-3)Gal(b1-4)[Fuc(a1-3)]GlcNAc(b1-6)[Neu5Ac(a2-3)Gal(b1-3)]GalNAc
# Outline: as §1
# [28] = biological target: Neu5Ac(a2-3)Gal(b1-4)[Fuc(a1-3)]GlcNAc6S
# Outline: as §1
# [29] = biological target: Neu5Ac(a2-3)Gal6S(b1-4)GlcNAc
# Outline: as §1
# [30] = biological target: Neu5Ac(a2-3)Gal6S(b1-4)[Fuc(a1-3)]GlcNAc
# Outline: as §1
# [31] = biological target: Neu5Ac(a2-3)GalNAc
# Outline: as §1
# [32] = biological target: Neu5Ac(a2-3)GalNAc(b1-4)GlcNAc
# Outline: as §1
# [33] = biological target: Neu5Ac(a2-3)[GalNAc(b1-4)]Gal(b1-4)Glc
# Outline: as §1
# [34] = biological target: Neu5Ac(a2-3)[GalNAc(b1-4)]Gal(b1-4)GlcNAc
# Outline: as §1
# [35] = biological target: Neu5Ac(a2-3)[GalNAc(b1-4)]Gal(b1-4)GlcNAc(b1-3)GalNAc
# Outline: as §1
# [36] = biological target: Neu5Ac(a2-3)[Neu5Ac(a2-6)]GalNAc
# Outline: as §1
# [37] = biological target: Neu5Ac(a2-6)Gal
# Outline: as §1
binder,measurement,setting,value
PX9937F-bfa-516-16-516 (Bacteroides fragilis) (protein) LDIDPTSSIADSNYWKTEAQFSTFNVGLHALLRECSFNFFLLGEPRADIYGDVPFGGEATQGMERLPFNTINKENTGISNFAGMYKVINQINLMIAKTKETTVLSEAGKNYYLGEAYGMRAYLYFHLLRSWGDVILYLDYTNGASLDLSNLSKAASPAEEVMKQIKEDITASEKGFGSDYSFKYGRYYWSMAATQMLKGEVYLWSGRQMGGGTADYTTAKTALQSIVSNANVSLQDDFSKVFAYNNKDNSEIIFSIRNAKDEYNMWDDRFRQNLVPQQAYMTSTYCNKEGVSFKDLPEGQLNGLIRLQIRYDLYNKAFRDGDTRKDASMTAVYQKQQDGTVKYIAPFCNKYQGVLLDGASQRSFLNDYPIYRYADCLLLLAEAKALLGEDPTAEINQVRERAYGKEFFEANKATLAYPNDKGDFYTDNKYMSGDEDPLEAILKERMREFMFEGKRWYDLRLLGADYVTKRTSAVATRLLWPINESVLTDNPALKQTPGYQN,glycan array binding signal (z-score),[1],-0.258
same,glycan array binding signal (z-score),[2],-0.154
same,glycan array binding signal (z-score),[3],-0.109
same,glycan array binding signal (z-score),[4],-0.179
same,glycan array binding signal (z-score),[5],-0.33
same,glycan array binding signal (z-score),[6],-0.269
same,glycan array binding signal (z-score),[7],0.035
same,glycan array binding signal (z-score),[8],-0.282
same,glycan array binding signal (z-score),[9],0.224
same,glycan array binding signal (z-score),[10],-0.145
same,glycan array binding signal (z-score),[11],-0.339
same,glycan array binding signal (z-score),[12],-0.252
same,glycan array binding signal (z-score),[13],-0.237
same,glycan array binding signal (z-score),[14],-0.231
same,glycan array binding signal (z-score),[15],-0.202
same,glycan array binding signal (z-score),[16],0.348
same,glycan array binding signal (z-score),[17],-0.2
same,glycan array binding signal (z-score),[18],-0.386
same,glycan array binding signal (z-score),[19],-0.3
same,glycan array binding signal (z-score),[20],-0.331
same,glycan array binding signal (z-score),[21],-0.273
same,glycan array binding signal (z-score),[22],-0.167
same,glycan array binding signal (z-score),[23],0.286
same,glycan array binding signal (z-score),[24],-0.138
same,glycan array binding signal (z-score),[25],0.329
same,glycan array binding signal (z-score),[26],0.748
same,glycan array binding signal (z-score),[27],-0.116
same,glycan array binding signal (z-score),[28],-0.258
same,glycan array binding signal (z-score),[29],-0.093
same,glycan array binding signal (z-score),[30],-0.32
same,glycan array binding signal (z-score),[31],-0.194
same,glycan array binding signal (z-score),[32],-0.2
same,glycan array binding signal (z-score),[33],-0.278
same,glycan array binding signal (z-score),[34],0.098
same,glycan array binding signal (z-score),[35],-0.277
same,glycan array binding signal (z-score),[36],-0.255
same,glycan array binding signal (z-score),[37],0.025
